{"source": "PubChem BioAssay (NCATS)", "note": "Inconclusive results, whose numbers are uncertain, are shown with a selection of clear calls. No potency is given beside an inconclusive call; the fits are too rough. Calls of active or inactive are those of the source. The call rests on the fitted dose curve; in most records, active means well fitted inhibition curve with a large enough effect; inconclusive means small, poorly fitted or top-dose-only effect; inactive means flat fitted curve, though single readings scatter. On the % scale 0 is the no-effect control and ±100 the full control effect; potency means the concentration at half of the fitted maximal effect; tags describe the fitted curve by direction and shape."}
{"molecular_target": "Voltage-gated inwardly rectifying potassium channel KCNH2 (Homo sapiens) (UniProt Q12809)", "sequence (Q12809 whole entry, looked up)": "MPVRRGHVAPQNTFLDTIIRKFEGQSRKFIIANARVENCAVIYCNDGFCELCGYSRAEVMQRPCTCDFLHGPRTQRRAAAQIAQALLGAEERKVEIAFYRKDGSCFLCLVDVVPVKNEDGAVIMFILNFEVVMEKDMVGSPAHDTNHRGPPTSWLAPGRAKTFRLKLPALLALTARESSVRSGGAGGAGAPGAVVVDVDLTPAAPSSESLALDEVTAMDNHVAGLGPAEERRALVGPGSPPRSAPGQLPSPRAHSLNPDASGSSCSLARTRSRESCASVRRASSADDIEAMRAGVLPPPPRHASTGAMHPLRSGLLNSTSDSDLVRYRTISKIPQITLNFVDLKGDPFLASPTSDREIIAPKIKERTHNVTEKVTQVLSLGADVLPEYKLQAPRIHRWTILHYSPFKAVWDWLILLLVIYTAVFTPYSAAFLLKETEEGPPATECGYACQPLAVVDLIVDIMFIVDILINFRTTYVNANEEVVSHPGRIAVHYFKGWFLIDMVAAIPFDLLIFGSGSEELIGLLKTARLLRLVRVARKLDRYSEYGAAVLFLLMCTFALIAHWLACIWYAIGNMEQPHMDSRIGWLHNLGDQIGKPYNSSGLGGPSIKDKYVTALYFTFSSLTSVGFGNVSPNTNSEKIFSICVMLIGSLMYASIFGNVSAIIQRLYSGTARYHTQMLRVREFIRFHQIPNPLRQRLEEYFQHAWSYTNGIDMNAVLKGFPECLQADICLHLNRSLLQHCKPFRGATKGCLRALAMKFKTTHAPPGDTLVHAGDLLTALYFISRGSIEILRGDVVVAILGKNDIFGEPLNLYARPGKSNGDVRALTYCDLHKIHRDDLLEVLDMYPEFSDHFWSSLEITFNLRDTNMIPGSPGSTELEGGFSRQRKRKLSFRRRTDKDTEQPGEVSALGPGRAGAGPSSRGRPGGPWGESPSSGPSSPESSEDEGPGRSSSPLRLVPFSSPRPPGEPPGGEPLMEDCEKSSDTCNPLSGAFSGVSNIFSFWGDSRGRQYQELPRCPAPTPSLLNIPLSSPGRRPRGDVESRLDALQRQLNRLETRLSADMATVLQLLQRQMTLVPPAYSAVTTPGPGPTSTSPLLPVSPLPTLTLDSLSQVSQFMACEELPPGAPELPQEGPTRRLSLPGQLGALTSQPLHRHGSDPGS", "test": "qHTS Assay for Small Molecule Inhibitors of the Human hERG Channel Activity (AID 588834);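 further: lower thallium flux fluorescence means stronger hERG block; nearly all actives have a fitted effect of over 50% in size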; on activity change, negative = inhibition: top concentration of the series differs between compounds", "settings": "U2OS BacMam hERG, FluxOR thallium flux fluorescence; activity change, negative = inhibition: at 46.1 µM (top of the series)", "from_the_text": "NIH Chemical Genomics Center [NCGC]\nNational Institutes of Environmental Health Sciences [NIEHS]\nNational Toxicology Program [NTP]\nWe have developed a 1536-well cell-based assay for quantitative high throughput screening (qHTS) to determine in vitro hERG channel blockage as a measure of cardio toxicity with small molecules. This particular assay uses the U2OS cell line which is derived from human osteosarcoma.\nNCGC Assay Protocol Summary:\nHERG assay (FluxORTM thallium flux assay) was initially developed by Invitrogen/Molecular Probes, and then miniaturized into 1536-well plate in a homogeneous format by NCGC. This assay measures the activity of potassium channel using thallium dye (FluxOR) flux as surrogate measurement for potassium into the cells with a FDSS-7000 kinetic plate reader (Hamamatsu Corp., Hamamatsu City, Japan). The hERG ion channel is transduced into mammalian cells (U2OS) using a baculovirus (Bacmam) construct harboring the hERG K+ ion channel. So far we screened LOPAC1280 library (Sigma), the NTP collection of 1408 compounds, and the NCGC Pharmaceutical Collection (NPC), in which many well defined HERG blockers are present. The rank order potencies of many of these compounds are similar to that of other HERG assays (membrane potential, Rb+ flux, patch clamp, etc). This quick and homogeneous assay is also found to be sensitive, specific, and robust.\nUsing the FluxORTM thallium flux assay, the activity of potassium channel using thallium dye (FluxOR) flux as surrogate measurement for potassium into the cells was measured in the U2OS cell line transduced with hERG K+ ion channel using a baculovirus (Bacmam) using Opti-MEM medium (Invitrogen) containing 2% fetal calf serum (FCS, HyCone) following loading buffer addition, compound treatment for around 10 minutes and finally adding stimulation buffer. The assay was performed in black clear Kalypsys 1536-well plates. In the screen, Astemizole was used as positive controls. Library compounds were measured for their ability to cause hERG channel blockage in the cell line, as reflected by a decrease in fluorescence intensity, in a concentration-dependent manner. […] AC50 values were determined from concentration-response data modeled with the standard Hill equation.\nqHTS protocol for hERG-U2OS cellular assay\n[Step] [Parameter] [Value] [Description]\n1. Day 1: Replace medium in 70-80% confluent T225 flask with 2.5 mL of hERG-BacMam virus plus 12.5 mL of phosphate buffered saline (PBS) (corresponding roughly to a multiplicity of infection ratio of 100 virus particles/cell)\n2. Incubation: 4 hrs @ room Temperature in Dark\n3. Reagent; Remove virus; wash once with 25 ml DPBS\n4. Reagent; 35 ml culture medium\n5. Incubation; 37 °C overnight\n6. Day2: Reagent; 3 uL; 2000 U2OS cells/well\n7. Time; 4 hr; 37 °C incubation\n8. Loading buffer; 1 uL; 0.7X;\n9. Incubation: 1hr @ RT in Dark.\n12. Time; 10min; 37 °C incubation\n13. Read fluorescence Intensity on FDSS for 10 Sec with 1 sec interval\n14. Reagent; 1 uL; stimulation buffer\n15. Read fluorescence Intensity on FDSS for 2 min with 1 sec interval\n16. Detection; Fluorescence Intensity; FDSS"}
{"smiles": "CN=C1C=CC(=C(c2ccc(N(C)C)cc2)c2ccc(N(C)C)cc2)C=C1", "Potency": "active: 4.47 µM"}
{"smiles": "COc1ccc(C2C(=O)c3ccccc3C2=O)cc1", "Potency": "inconclusive [inhibitor, single point]"}
{"smiles": "CCC1=C[C@@H]2CN(C1)Cc1c([nH]c3ccccc13)[C@@](C(=O)OC)(c1cc3c(cc1OC)N(C)[C@@H]1[C@@](O)(C(=O)OC)[C@H](OC(C)=O)[C@]4(CC)C=CCN5CC[C@]31[C@@H]54)C2", "Potency": "inconclusive [inhibitor, single point]"}
{"smiles": "Cc1cc(-c2ccccc2)nnc1NCCN1CCOCC1", "Potency": "inconclusive [inhibitor, partial curve, poor fit]"}
{"smiles": "COc1cc(C=C2CCC/C(=C\\c3ccc(O)c(OC)c3)C2=O)ccc1O", "Potency": "inconclusive [inhibitor, single point]"}
{"smiles": "CC(=O)[C@]1(O)Cc2c(O)c3c(c(O)c2[C@@H](O[C@H]2C[C@H](N)[C@H](O)[C@H](C)O2)C1)C(=O)c1ccccc1C3=O", "Potency": "active: 10 µM"}
{"smiles": "CCOc1nc2cccc(C(=O)O)c2n1Cc1ccc(-c2ccccc2-c2nn[nH]n2)cc1", "Potency": "inconclusive [inhibitor, single point]"}
{"smiles": "CC(C)(C)CC(C)(C)c1ccc(O)c(Cc2ccc(Cl)cc2Cl)c1", "Potency": "inconclusive [inhibitor, single point]"}
{"smiles": "CC[C@@]1(O)C(=O)OCc2c1cc1n(c2=O)Cc2cc3c(CN(C)C)c(O)ccc3nc2-1", "Potency": "inconclusive [inhibitor, single point]"}
{"smiles": "CCN1CCC[C@H]1CNC(=O)c1c(OC)ccc(Br)c1OC", "Potency": "inconclusive [inhibitor, partial curve, poor fit]"}
{"smiles": "Cc1c(O)cccc1C(=O)N[C@@H](CSc1ccccc1)[C@H](O)CN1C[C@H]2CCCC[C@H]2C[C@H]1C(=O)NC(C)(C)C", "Potency": "inconclusive [inhibitor, single point]"}
{"smiles": "CCCC(=O)O[C@]1(C(=O)CCl)[C@H](C)C[C@@H]2[C@H]3CCC4=CC(=O)C=C[C@]4(C)[C@@]3(F)C(=O)C[C@@]21C", "Potency": "inconclusive [inhibitor, full curve]"}
{"smiles": "CCCCN1C[C@H](O)[C@@H](O)[C@H](O)[C@H]1CO", "activity change, negative = inhibition": "inactive: -1.28%"}
{"smiles": "CCCN1CCCC[C@H]1C(=O)Nc1c(C)cccc1C", "Potency": "inconclusive [inhibitor, single point]"}
{"smiles": "CC[C@@]1(O)C[C@H](O[C@H]2C[C@H](N(C)C)[C@H](O[C@H]3C[C@H](O)[C@H](O[C@H]4CCC(=O)[C@H](C)O4)[C@H](C)O3)[C@H](C)O2)c2c(cc3c(c2O)C(=O)c2c(O)cccc2C3=O)[C@H]1C(=O)OC", "Potency": "inconclusive [inhibitor, partial curve, poor fit]"}
{"smiles": "Clc1ccc(Nc2nnc(Cc3ccncc3)c3ccccc23)cc1", "Potency": "inconclusive [inhibitor, partial curve, poor fit]"}
{"smiles": "CS(=O)(=O)c1ccc([C@@H](O)[C@@H](CO)NC(=O)C(Cl)Cl)cc1", "activity change, negative = inhibition": "inactive: 8.03% [at 20.6 µM]"}
{"smiles": "COc1ccc(C[C@@H](C)NC[C@H](O)c2ccc(O)c(NC=O)c2)cc1", "Potency": "inconclusive [inhibitor, partial curve, poor fit]"}
{"smiles": "CC[C@@]1([C@@H]2O[C@@H]([C@H]3O[C@@](O)(CO)[C@H](C)C[C@@H]3C)C[C@@H]2C)CC[C@H]([C@]2(C)CC[C@]3(C[C@H](O)[C@@H](C)[C@@H]([C@@H](C)[C@@H](OC)[C@H](C)C(=O)O)O3)O2)O1", "note": "(stereo in doubt)", "Potency": "inconclusive [inhibitor, single point]"}
{"smiles": "CC(=O)OCC(=O)[C@@]1(OC(C)=O)[C@@H](C)C[C@H]2[C@@H]3C[C@H](F)C4=CC(=O)C=C[C@]4(C)[C@@]3(F)[C@@H](O)C[C@@]21C", "activity change, negative = inhibition": "inactive: -2.51%"}
{"smiles": "COC(C(=O)C(O)C(C)O)C1Cc2cc3cc(OC4CC(OC5CC(O)C(O)C(C)O5)C(O)C(C)O4)c(C)c(O)c3c(O)c2C(=O)C1OC1CC(OC2CC(OC3CC(C)(O)C(O)C(C)O3)C(O)C(C)O2)C(O)C(C)O1", "note": "(stereo not given)", "Potency": "inconclusive [inhibitor, single point]"}
{"smiles": "O=CCCCC=O", "Potency": "inconclusive [inhibitor, single point]"}
{"smiles": "Cc1c(NC(=O)c2cccnc2)c(=O)n(-c2ccccc2)n1C", "Potency": "inconclusive [inhibitor, single point]"}
{"smiles": "COc1cccc(CCc2ccccc2OCC(CN(C)C)OC(=O)CCC(=O)O)c1", "note": "(stereo not given)", "Potency": "inconclusive [inhibitor, partial curve, poor fit]"}
{"smiles": "CCCCC(=O)OCC(=O)[C@]1(O)Cc2c(O)c3c(c(O)c2[C@@H](O[C@H]2C[C@H](NC(=O)C(F)(F)F)[C@H](O)[C@H](C)O2)C1)C(=O)c1c(OC)cccc1C3=O", "Potency": "inconclusive [inhibitor, partial curve, poor fit]"}
{"smiles": "C[C@]12CCC(=O)C[C@@H]1CC[C@@H]1[C@@H]2CC[C@]2(C)C=CC[C@@H]12", "Potency": "inconclusive [inhibitor, partial curve, poor fit]"}
{"smiles": "C=CC1=C(C)C2=CC3=NC(=C(CC(=O)[O-])C4=NC(=C(C)C4=C([O-])[O-])C=c4[n-]c(c(C)c4CC)=CC1=N2)C(CCC(=O)[O-])C3C.[Cu+2].[Na+].[Na+].[Na+]", "note": "(stereo not given)", "Potency": "inconclusive [inhibitor, single point]"}
{"smiles": "CN(C)CC/C=C1/c2ccccc2CSc2ccccc21", "Potency": "inconclusive [inhibitor, partial curve, poor fit]"}
{"smiles": "CCOc1ccc(Cc2nccc3cc(OCC)c(OCC)cc23)cc1OCC", "Potency": "inconclusive [inhibitor, partial curve]"}
{"smiles": "O=S(=O)(O)O", "Potency": "inactive"}
{"smiles": "Cc1ccc(C(C)C)cc2c(C)ccc1-2", "Potency": "inconclusive [inhibitor, single point]"}
{"smiles": "Cc1ccc(C(=O)C(C)CN2CCCCC2)cc1", "note": "(stereo not given)", "Potency": "inconclusive [inhibitor, partial curve, poor fit]"}
{"smiles": "CCCCCCNC(=O)n1cc(F)c(=O)[nH]c1=O", "Potency": "inconclusive [inhibitor, partial curve]"}
{"smiles": "Nc1ccc(S(=O)(=O)Nc2ccccc2)cc1", "activity change, negative = inhibition": "inactive: -2.13%"}
{"smiles": "C[n+]1c2cc(N)ccc2cc2ccc(N)cc21", "note": "(tested in a mixture with another compound)", "Potency": "inconclusive [inhibitor, partial curve, poor fit]"}
{"smiles": "CCCCC(CC)COC(=O)/C=C/c1ccc(OC)cc1", "note": "(stereo not given)", "Potency": "inconclusive [inhibitor, single point]"}
{"smiles": "CC(=O)OCC(=O)[C@@]1(O)[C@H](C)C[C@H]2[C@@H]3CCC4=CC(=O)C=C[C@]4(C)[C@@]3(F)[C@@H](O)C[C@@]21C", "activity change, negative = inhibition": "inactive: -5.59% [at 20.6 µM]"}
{"smiles": "CN(C)CCCN1c2ccccc2C(C)(C)c2ccccc21", "Potency": "inconclusive [inhibitor, partial curve, poor fit]"}
{"smiles": "CCCc1cc(C(N)=S)ccn1", "Potency": "inconclusive [inhibitor, single point]"}
{"smiles": "O=S(=O)(O)c1ccc2c(N=Nc3ccc(S(=O)(=O)O)c4ccccc34)c(O)c(S(=O)(=O)O)cc2c1", "activity change, negative = inhibition": "inactive: 28.4%"}
